Data from patent US20250163048A1 (Tango Therapeutics, Inc., priority 2022, published 2025).

Columns and labels:
[1] = tested on: MTAP-deleted cell line; experiment: viability assay for the MTAP-deleted cell line; type: cell-based; details: Homo sapiens, HAP1, viability assay
[2] = tested on: HAP1 MTAP-deleted cell line; experiment: SDMA in-cell western assay, HAP1 MTAP-deleted
[3] = tested on: HAP1 MTAP-intact cell line; experiment: SDMA in-cell western assay, HAP1 MTAP-intact; details: Homo sapiens, HAP1, read-out: Hap1 MTAP intact IC50, SDMA in-cell western assay, HAP1 MTAP-intact cell line

For `C[C@H]1CC[C@H](c2cncc(F)c2)N(C(=O)C(=O)Nc2cnc(N)c3cn[nH]c23)C1` [Compound 243, N-(4-Amino-1H-pyrazolo[4,3-c]pyridin-7-yl)-2-oxo-2-[(2R,5S)-2-(5-fluoro-3-pyridyl)-5-methyl-1-piperidyl]acetamide], the IC50 [1] was under 100 nM, the IC50 ([2]; Homo sapiens, HAP1, read-out: Hap1 MTAP deleted IC50, SDMA in-cell western assay, HAP1 MTAP-deleted cell line) was under 5 nM and the IC90 ([2]; Homo sapiens, HAP1, read-out: Hap1 MTAP deleted IC90, SDMA in-cell western assay, HAP1 MTAP-deleted cell line) was under 75 nM. The “Hap1 MTAP intact/deleted ratio” value ([2]; IC50 ratio between HAP1 MTAP-intact and HAP1 MTAP-deleted cell line, SDMA in-cell western assay) was “A (“A” indicates an IC50 ratio greater than or equal to 30 fold)” and the IC50 [3] was over 50 nM.
